Experimental data from ChEMBL document CHEMBL4888484, “Replenishing the malaria drug discovery pipeline: Screening and hit evaluation of the MMV Hit Generation Library 1 (HGL1) against asexual blood stage Plasmodium falciparum ,using a nano luciferase reporter read-out” (2022).
Hit rate of the full screen: of about 150,000 compounds, about 540 (0.36%) showed an effect of 50% or more. This is one part of the list.

Test system: Plasmodium falciparum
Experiment: Primary screen in NF54 nanoGlo assay, in single point, at 2uM, 72h; a lower Z score goes with more inhibition
Type: functional, Erythrocyte
Details: timepoint 72 hour

Row | SMILES | % Inhibition [%] | Z score
1 | COc1ccc(C2C3CCCCC3(O)CCN2CC(=O)NCc2ccco2)c(OC)c1 (stereo not given) | -11 | 0.94
2 | O=C(Cn1cnc2ccccc21)N[C@H]1CCN(Cc2ccsc2)C1 | -4 | 0.56
3 | CC1=CN2C(=O)[C@@](Cc3ccc(F)cc3)(NC(=O)c3ccccc3)N=C2C=C1 | -13 | 2.52
4 | COc1ccc(C)cc1NC(=O)Cn1cncc(C(=O)NC2CC2)c1=O | 1 | -0.16
5 | CN(Cc1ccncc1Cl)[C@H]1CCN(CC(F)(F)F)C1=O | -13 | 1.27
6 | COc1ccc(CNC(=O)CS(=O)(=O)C2CCCC2)cc1Br | -12 | 1.1
7 | C[C@H]1CN(c2cccc(Cl)c2)C(=O)CN1C(=O)CN1CCCC1=O | -9 | 1.54
8 | COC(=O)c1ccc(N2C[C@@H](C(=O)OCC(=O)Nc3cc(C)on3)CC2=O)cc1 | 14 | -2.19
9 | Cc1cccc(Cl)c1CNC(=O)c1c(C)noc1-c1ccc(C(C)(C)C)cc1 | -21 | 2.04
10 | NC(=O)c1ccsc1NC(=O)c1ccc2c(c1)CCCC2 | -9 | 1.59
11 | CCn1nncc1C(=O)NCc1ccc([C@H](C)O)c(C)n1 | -5 | 0.94
12 | N#Cc1cnc2c(F)cc(F)cc2c1NCCc1nccn1C(F)F | -17 | 1.6
13 | Fc1ccc(Br)c(CNCCc2nnc[nH]2)c1 | 0 | -0.06
14 | Cc1nc[nH]c1-c1nncn1-c1ccccc1 | 21 | -2.03
15 | CCCc1nc(C)c(CNC(=O)Nc2cnns2)s1 | -8 | 0.91
16 | CC[C@]1(CO)CCCN(Cc2cc3ccccc3n2C)C1 | 0 | 0.03
17 | CCC1=C(c2ccc(C)cc2)S(=O)(=O)N=C1NCC(=O)NCc1ccccc1F | -1 | 0.21
18 | O=C(NCCCOCC1CC1)N1CC2CCCC2C1 (stereo not given) | -10 | 1.84
19 | Cc1nc(N)nc(N2CC[C@H](c3ccccc3Cl)C2)c1CCC(=O)O | 6 | -1.2
20 | O=C(c1n[nH]c(=O)c2ccccc12)N1CCC(Cc2ccccc2)CC1 | -14 | 1.41
21 | Cc1onc(-c2ccccn2)c1C(=O)NC1CCCCC1 | 12 | -2.28
22 | OCCN(CCO)Cc1ccc(F)c(Br)c1 | -5 | 1.03

Row | SMILES | % Inhibition [%] | Z score
23 | COc1ccc(Cc2nc(-c3ccc(C)cc3)n[nH]c2=O)cc1OC | 0 | -0.07
24 | Cc1cc(-c2nc(-c3ccc(F)cc3)no2)c(C)n1CC(=O)NC1CCCC1 | -3 | 0.68
25 | CC(C)CC(OC(=O)CC1CCCO1)c1ccccn1 (stereo not given) | 2 | -0.28
26 | O=C(Cn1cnnn1)N1CCC(Oc2cncc(Cl)c2)CC1 | -2 | 0.34
27 | CCC(C)(C)NS(=O)(=O)c1cccc(Br)c1 | 17 | -2
28 | Cc1ccc(S(=O)(=O)CCCC(=O)N(CCN(C)C)c2nc3c(F)cccc3s2)cc1 | -7 | 1.14
29 | Cc1c(C(=O)N[C@H](C)C(F)(F)F)ccc2cnc(C3CC3)n12 | -14 | 2
30 | CCCN(Cc1c[nH]nc1-c1ccc(F)cc1)Cc1nccn1C | -21 | 1.89
31 | CC(=O)N1CC2(CCN(CCOc3ccc(Cl)cc3)CC2)C[C@H]1C(=O)O | -2 | 0.45
32 | Cc1cc(C)cc(N2CCN(C(=O)c3[nH]c4ccc(C)cc4c3C)CC2=O)c1 | -1 | 0.2
33 | Cc1cccc(NS(=O)(=O)c2cc(-c3nc(C)cs3)sc2C)c1 | 5 | -0.67
34 | O=C(CCc1cc2n(n1)CCN(C(=O)c1ncccc1O)C2)N1CCOCC1 | -1 | 0.22
35 | CC(=O)Nc1onc(C)c1-c1ccc(C)c(S(=O)(=O)NCc2ccc(Br)cc2)c1 | 14 | -2
36 | Cn1ncc2c(N3CC(=O)N(C4CC4)C3)ncnc21 | 38 | -5.46
37 | CCc1cc(C#N)c(NC(=O)[C@@H](OC)C2CC2)s1 | -5 | 0.78
38 | Cc1ccc(S(=O)(=O)NCC(=O)NCC(=O)N[C@H]2CCCc3ccccc32)cc1C | -12 | 1.92
39 | Cc1cc(NC(=O)[C@H]2CCCO2)nc(-c2ccccc2)n1 | -7 | 0.73
40 | Nc1nc(N2CCCCCC2)ncc1S(=O)(=O)c1cccs1 | -4 | 0.38
41 | Cc1c(C(=O)N2CCCCC2)c(C(F)(F)F)nn1[C@H]1CCCN(C(C)C)C1 | -4 | 0.62
42 | CC[C@@H](C(=O)NCCc1ccccc1)N1C(=O)CCn2nc(C)cc21 | -2 | 0.18
43 | COCCN1C(=O)NC2CC1(C)Oc1cc(Cl)ccc12 (stereo not given) | -10 | 1.65
44 | Cc1cc(C(=O)N2CCCN(CC(=O)N3CCCC3)CC2)ccc1F | -13 | 1.88

Row | SMILES | % Inhibition [%] | Z score
45 | CN1C(=O)c2cccnc2O[C@H]2CN(C(=O)C3CCCCC3)C[C@H]21 | -1 | 0.11
46 | CC(C)(C)c1ccc(OCCNS(C)(=O)=O)cc1 | -6 | 0.92
47 | CC1(C)Cc2nc(C(C)(C)C)ncc2[C@@H](NS(=O)(=O)c2cccnc2)C1 | 17 | -2.26
48 | Cc1cc(S(=O)(=O)N(CC2CC2)c2ccccc2)cnc1N | -8 | 0.92
49 | COc1ccc(-n2ncc3c(N)c4c(nc32)C[C@H](c2ccccc2)CC4=O)cc1 | -12 | 1.52
50 | CC(C)C(C)(C)CN=C(N)N(C)C1CC1 | -8 | 0.79
51 | CCOc1ccc(CNC(=O)c2ccc(Oc3ccnc(-c4cccc(C)c4)n3)cc2)cc1OCC | 4 | -0.54
52 | COc1cccc(CNC(=O)c2ccc(NS(=O)(=O)c3ccc(-c4ccccc4C)cc3)cc2)c1 | -11 | 1.66
53 | CC(C)C(=O)NCCNC(=O)N1CCCC2CCCC21 (stereo not given) | -4 | 0.49
54 | COc1cccc(CNC(=O)[C@@H]2CCCCN2S(=O)(=O)c2ccc3c(c2)nnn3C(C)C)c1 | -35 | 3.06
55 | Cc1nc(CNCCC(=O)OC(C)(C)C)cs1 | 2 | -0.2
56 | Cc1nc(C)c(CC(=O)N2CC[C@@]3(CCCN(CC4CC4)C3=O)C2)s1 | -1 | 0.16
57 | CN(Cc1nccs1)c1cc([C@H]2C[C@@H](O)C2)ncn1 | -1 | 0.12
58 | O=C1c2ccccc2C(=O)N1CCc1cn2cc(F)ccc2n1 | -5 | 0.67
59 | Cc1cccc(OC(C)(C)C(=O)N[C@@H](C)c2ncnn2C)c1 | -11 | 2.16
60 | CCn1nc(-c2ccccc2CN2CCOCC2)nc1N(C)C | -10 | 1.35
61 | COCCN1C[C@@H]2CC[C@H]1CN(C(=O)c1cc(-n3cccn3)ccc1Cl)C2 | 4 | -0.8
62 | CC[C@H](C)n1ncc(NC(=O)C(C)(C)c2cccc(O)c2)c1C1CC1 | 6 | -0.74
63 | CC1=C(C(=O)NCCNC(=O)OC(C)(C)C)[C@H](C)n2ncnc2N1C | -3 | 0.44
64 | COc1cccc(Cl)c1CN1CCOC[C@H]1c1nc(-c2ccccc2)no1 | -1 | 0.08
65 | CN(CCCCc1ccccc1)C(=O)Nc1cccc(S(N)(=O)=O)c1 | 1 | -0.2
66 | Cc1c(Br)cccc1CN1C(=O)NC2(CC(O)C2)C1=O (stereo not given) | -14 | 1.81

Row | SMILES | % Inhibition [%] | Z score
67 | CC(=O)Nc1ccc(Oc2ccc(-c3noc(CN4C(=O)COc5ccc(Cl)cc54)n3)cc2)cc1 | -12 | 1.46
68 | Cn1ccnc1C(O)C1CCCN(CC(=O)NC2CCCCCCC2)C1 (stereo not given) | -7 | 1.32
69 | CC1CN(CC(O)Cn2cccn2)CCN1CC(O)c1ccccc1 (stereo not given) | 0 | -0.01
70 | COc1ncccc1C(=O)NCc1cncc(-c2cccs2)c1 | 10 | -1.44
71 | CC(C)(CNC(=O)[C@H]1CCCOC1)C1CCC1 | 1 | -0.17
72 | CCc1nc(N2C[C@H]3CC[C@@H](C2)N(Cc2c(C)noc2C)C3=O)no1 | -1 | 0.08
73 | O=c1ccc2c([nH]1)CCN(S(=O)(=O)c1ccc3ccccc3c1)C2 | -16 | 2.43
74 | CC1CC(NC(=O)Nc2cnc3c(c2)c(=O)n(C)c(=O)n3C)c2nccn21 (stereo not given) | -7 | 1.16
75 | CC(C)(C)n1nnc(CNC(=O)N[C@H]2CCC[C@@H](C3CC3)C2)n1 | -2 | 0.34
76 | Cc1noc(C)c1CCC(=O)N1CCN(C(=O)c2cnn3c2CCCC3)CC1 | -2 | 0.31
77 | OCCN(CCO)c1ccc2ccccc2c1 | 7 | -0.86
78 | O=C(C1CCCC2CCCCC21)N1CCN(c2ncccn2)CC1 (stereo not given) | 32 | -4.57
79 | CC(=O)N1[C@@H](C)c2ccccc2C(C)(C)CC12CCCCC2 | 7 | -0.97
80 | Cc1ccc(CNCCC2=CCCCC2)cc1 | 33 | -4.31
81 | CN(C(=O)Cn1ccn2nc3c(c2c1=O)CCCC3)C1CCCCC1 | -22 | 2.53
82 | CCS(=O)(=O)c1cccc(CC(=O)N(C)C)c1 | -2 | 0.25
83 | O=C(NCCc1nnc2n1CCNCC2)[C@]1(c2ccccc2)CC12CCCC2 | -10 | 1.54
84 | CCC(CC)C(=O)N(Cc1ccccc1)Cc1cc(NC(=O)C2CCCC2)ccc1N(C)C | -14 | 1.22
85 | COc1ccc(N2C(=O)[C@@H]3C[C@H]2CN3C/C=C/c2ccco2)cc1Cl | -7 | 0.88
